According to the supplement of paper PMC7726561:
The full ranking holds about 1,100 sequences; the median of “thermal melting temperature (Tm) of peptide-HLA complex” is about 58, and the lowest 2% start at about 42. The list shows a part of the results.

Each sequence was assayed against HLA-A*02:01 (assay: thermal melting temperature (Tm) of peptide-HLA complex; higher = more thermostable pHLA complex). Details: C1R-A*02:01.
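Also: cell lysates heated 10 min at 37–73 °C, remaining pHLA pulled down with pan-class I antibody, peptides quantified by DIA-MS versus 37 °C, Tm where half the complex is lost.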

Sequence | thermal melting temperature [°C]
SLLDGVVEKL | 55.5
LLSDTVQHL | 56.5
YQLELRTTL | 54.7
NLLESVQRL | 49.5
HLFETISQA | 54.9
QLQDFDWQV | 59.5
FILPHISTA | 55.7
VLHELTFQA | 60.4
SLIAGVIRV | 60.1
SVYPNGHFV | 53
QLLTAIVKL | 53.4
QLSDVAEKL | 56.1
TLFDYEVRL | 62.7
LLKDSIVQL | 47.9
TTFDKEFLL | 54.4
FLIGDEAATHL | 47.4
